Assay results taken from a compilation of properties of binary mixtures (doi:10.1016/j.jct.2020.106232).
Some of these densities may be calculated back from excess volumes.

Assay: xn = mol fraction of the nth substance listed
Details: 100 kPa

CCCC[n+]1ccn(C)c1.O=[N+]([O-])[O-] + CCCCCO
mass density [kg/m3]
Details	293.15 K	303.15 K	313.15 K	323.15 K
x1 = 0.0824	859.7	852.7	845.6	–
x1 = 0.1538	895.2	888.4	881.5	875
x1 = 0.2318	930.5	923.8	917.1	910.7
x1 = 0.3425	975.5	968.9	962.3	956.1
x1 = 0.4363	–	1003	996.5	990.6
x1 = 0.5668	–	1045.3	1039	1033.3
x1 = 0.6481	1075.1	1068.9	–	1057.2
x1 = 0.7481	–	1095.5	1089.5	1084.1
x1 = 0.8416	1124.1	1118.1	–	1107.1
x1 = 0.9415	1146.2	1140.3	–	–
x1 = 1	1158.3	1152.3	1146.5	1141.2

CCCCCO + CCCC[n+]1ccn(C)c1.O=[N+]([O-])[O-]
x2 = 0
Details	mass density [kg/m3]
293.15 K	814.5
303.15 K	807.1
313.15 K	799.6
323.15 K	792
